This is one part of the list.

In the assay the target is T1, OsWOX13 (Oryza sativa, UniProt Q5QMM3 1-267).
T1 sequence: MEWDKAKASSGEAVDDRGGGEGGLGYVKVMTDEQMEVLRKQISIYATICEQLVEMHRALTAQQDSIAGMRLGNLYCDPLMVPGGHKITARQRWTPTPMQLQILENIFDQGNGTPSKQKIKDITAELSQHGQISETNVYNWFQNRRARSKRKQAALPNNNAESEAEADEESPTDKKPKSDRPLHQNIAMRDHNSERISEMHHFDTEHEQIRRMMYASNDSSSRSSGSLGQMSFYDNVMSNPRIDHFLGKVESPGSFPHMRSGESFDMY
Description: protein-binding microarray (RPBM); PBS, 2% BSA, 51.3 ng/ul salmon testes DNA, 50 uM zinc acetate, 200 nM TF, 25 C, 1 h; high values mean tight binding. As to conditions: protein: recombinant; tags: N-terminal polyhistidine and DsRed monomer fusion (pET32a); label: CyDye5-dUTP incorporated in the synthesized complementary strand; 3' TTTTT single-stranded linker to array surface; dsDNA, one strand shown. The method, boiled down:
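Polyhistidine-tagged DsRed fusions of transcription factors, joined at the N-terminus, were expressed in E. coli BL21-CodonPlus and isolated on Ni–NTA. They were incubated at 200 nM for 1 h at 25 °C on a custom Agilent array, double-stranded and BSA-blocked, in PBS with 2% BSA, salmon testes DNA and 50 µM zinc acetate. The binding signal is per-feature fluorescence intensity (arbitrary units) read on an Axon 4000B scanner after washing.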
As for “TTCCTGTAACTGGCATAACAATTGGTGCCCTGAACTTATGCGGAGTCACCTAGTGCAG”, the binding signal was 9580 fluorescence intensity (a.u.).

In the case of “AAAATTAGTCTAATTTAAAATAGTTTGACTCGTAACCTGACGGAGTCACCTAGTGCAG”, the binding signal was 13200 fluorescence intensity (a.u.).

Regarding “GGGGATTGGGAGTTTACACGAGGGAATTGATGATGAGATTCGGAGTCACCTAGTGCAG”, the binding signal was 24400 fluorescence intensity (a.u.).

For the sequence “AATTAATATTTAATTAATTATATGCTAATGAGCCTTCTCGCGGAGTCACCTAGTGCAG”, the binding signal is 43600 fluorescence intensity (a.u.).

Take “GTGTATGGGGTCTGATTGCTTTGAGGCTTGCAGATGATGACGGAGTCACCTAGTGCAG”: the binding signal is 7770 fluorescence intensity (a.u.). For “TAATATGTCCAATTATCCATGCAATCAAGCATCTAGAGTGCGGAGTCACCTAGTGCAG” the value was 11400 fluorescence intensity (a.u.); for “ACTAATTAATCAAGTAAGTCATAGGTCATGGATTTTATTTCGGAGTCACCTAGTGCAG”, 13800 fluorescence intensity (a.u.).

As for “CATGAAATAAATTTACAATTGATAAACAATTAGATGATGACGGAGTCACCTAGTGCAG”, the binding signal was 16500 fluorescence intensity (a.u.). Turning to “GTTAAATTAGTGCCATGTTTCTTCAGTTATGTTAATTACACGGAGTCACCTAGTGCAG”, the binding signal was 19100 fluorescence intensity (a.u.). Under “TTTCCAATCAGGTATCCAACTAAAGCAAATCCAATTAAAACGGAGTCACCTAGTGCAG” stands 3190 fluorescence intensity (a.u.); under “AGGTAATTGGAAGGCAATTCCTCCTTTATCTAACCAAATCCGGAGTCACCTAGTGCAG”, 36700 fluorescence intensity (a.u.); under “ATATATATAATTAATTAAGGGACATAATTAGTAGTTGCCACGGAGTCACCTAGTGCAG”, 31400 fluorescence intensity (a.u.). Turning to “GATTCTAATGGATGAATTGATGGTGTGGCGTATGTGATAGCGGAGTCACCTAGTGCAG”, the binding signal was 11500 fluorescence intensity (a.u.). Regarding “TCCCTCTGTATCACGTTCTTTGATTGCGTTGCGTGACTGGCGGAGTCACCTAGTGCAG”, the binding signal was 7020 fluorescence intensity (a.u.).

“CCTTAATTGCATGGTTTATGTGAGTTTATGGTACACATTTCGGAGTCACCTAGTGCAG”: the binding signal was 26200 fluorescence intensity (a.u.). Under “TTTATCAATTAAACGACAATTTGGAAGCCTTCTTATATTTCGGAGTCACCTAGTGCAG” stands 13800 fluorescence intensity (a.u.). As to “TGATCTGATTGAACAGTCAATCACAGATTCACAGTAGGACCGGAGTCACCTAGTGCAG”, the binding signal was 62500 fluorescence intensity (a.u.). In the case of “TTACGCTATGATTTAATAATGTGATGCTACAGTAAACATTCGGAGTCACCTAGTGCAG”, the binding signal is 4620 fluorescence intensity (a.u.). In the case of “TAGAGCTAAATTCTGAAATTGACAAGTACATCAACAATACCGGAGTCACCTAGTGCAG”, the binding signal was 3550 fluorescence intensity (a.u.). For “CTAGCTTTGAGGTGGAGGTGGTGGTGGAGGAGGAGGAGGACGGAGTCACCTAGTGCAG”, the binding signal is 3340 fluorescence intensity (a.u.).

On to “TGGTATGATTGAAAATGACATGTAAGTGAACATGCCTCTACGGAGTCACCTAGTGCAG”, for which the binding signal is 39500 fluorescence intensity (a.u.). As for “CATGTTCCTTAATTAATTGATTCCTCTGTGCATGCATATACGGAGTCACCTAGTGCAG”, the binding signal is 29600 fluorescence intensity (a.u.).

As to “AAGTAGATGGAGTAATTAATACTCCCTCCTTCCCTAAATGCGGAGTCACCTAGTGCAG”, the binding signal was 6090 fluorescence intensity (a.u.).

As for “GATAAATCTAAATCTTAATGTATACCAACTGATTTTAGGTCGGAGTCACCTAGTGCAG”, the binding signal was 9540 fluorescence intensity (a.u.).

Take “GTGCCTTTTAATTTTAACTGGTACCTAGTGCTTATTAATTCGGAGTCACCTAGTGCAG”: the binding signal is 3180 fluorescence intensity (a.u.).

“AATTAATTGAGCGGCGGCGGCTGGGACTATATATAGAGAGCGGAGTCACCTAGTGCAG”: the binding signal was 28800 fluorescence intensity (a.u.). Consider “CCACAATTCTGATTAGATTTTAACTCAACTATCATGGTCTCGGAGTCACCTAGTGCAG”, for which the binding signal is 26100 fluorescence intensity (a.u.). For “GACTAACACCCTAGACTGATTAATCAAAGCATTGTGCATGCGGAGTCACCTAGTGCAG” the value was 16800 fluorescence intensity (a.u.); for “AGTTGATTTTAAAATTTAGTTTTAAGATTTAAATTTTGGTCGGAGTCACCTAGTGCAG”, 35300 fluorescence intensity (a.u.). For “AGGAATCCTGATTTATAAAGCTCAACAGTGAGCGACAAGGCGGAGTCACCTAGTGCAG” the value was 4910 fluorescence intensity (a.u.); for “ACCGTATAATTTTGCAAAATGATCCCTGTTTTGGACTTGGCGGAGTCACCTAGTGCAG”, 7640 fluorescence intensity (a.u.); for “AGTCACGCTTTGAACGCTAATTAGCGTTCTCGGGCGGCGGCGGAGTCACCTAGTGCAG”, 3320 fluorescence intensity (a.u.). Under “TCAATCAAATTAATCCACCAGTCAGGAGTAACTCCTTTGACGGAGTCACCTAGTGCAG” stands 4070 fluorescence intensity (a.u.); under “TGCCTCTATCACATTCTTTCTTGTTCACATTTCCTCTTCTCGGAGTCACCTAGTGCAG”, 3180 fluorescence intensity (a.u.).

Turning to “AATATATTTAAATTGATTTTAGCTATTTTACACCACGGTTCGGAGTCACCTAGTGCAG”, the binding signal is 28900 fluorescence intensity (a.u.). For “CCCCTGATAATTGCGTCGTTGTACCATGGCTGTGAGGGCTCGGAGTCACCTAGTGCAG” the value was 19900 fluorescence intensity (a.u.). Under “ATAGATAGCTTAATTAGCAGCTAGAGATGTGTCTCTAGCTCGGAGTCACCTAGTGCAG” stands 10400 fluorescence intensity (a.u.); under “AGGCGTTAATTAACAAAGTGGTTAAGCCCTTAATGGCCACCGGAGTCACCTAGTGCAG”, 18200 fluorescence intensity (a.u.); under “AAACCAAAATATATTGATTACATTTCAATTCAAATTCAATCGGAGTCACCTAGTGCAG”, 4350 fluorescence intensity (a.u.).

Turning to “ATCCGAGAGAATCAATCAGCGGGTGTAGAGAAGCGATCGCCGGAGTCACCTAGTGCAG”, the binding signal is 6080 fluorescence intensity (a.u.). For “GGGGATAACTTGTGGGAAATTGGGTAGAAAGGGAGTTTTGCGGAGTCACCTAGTGCAG” the value was 3820 fluorescence intensity (a.u.); for “CCAGGTGGATTGGCAATTTGGGATTTTGCATTAAAACTTGCGGAGTCACCTAGTGCAG”, 37500 fluorescence intensity (a.u.). As to “TGAGATAATTGGTAATACTCCTCCCATTCTTGAACAAGTACGGAGTCACCTAGTGCAG”, the binding signal was 24900 fluorescence intensity (a.u.). For “AGCCTTAACTATTTCCATAATCATATTTTCTCGGAAATGACGGAGTCACCTAGTGCAG” the value was 5820 fluorescence intensity (a.u.); for “ACTGAATAAATTGGTACTAACTTGACTGCTGTTATTCTTTCGGAGTCACCTAGTGCAG”, 35400 fluorescence intensity (a.u.); for “CTGTGAATTTATGAATTAATTAAATATTTTGTTAAATAAACGGAGTCACCTAGTGCAG”, 6470 fluorescence intensity (a.u.). As to “CACAATTCCTTCTAATTATTTGATAATCAAGTTTCTCCTTCGGAGTCACCTAGTGCAG”, the binding signal is 9620 fluorescence intensity (a.u.). For “GCCTTGATTGATCTTGTAACTTGGCATGGTCCACAAGAAACGGAGTCACCTAGTGCAG” the value was 28900 fluorescence intensity (a.u.); for “GTTAGATTAGATTGGTACCTCATGTTACCTCGTACCTCATCGGAGTCACCTAGTGCAG”, 55700 fluorescence intensity (a.u.). With “TTTAATTTTAACGTTAACTAAACACACCCTTAGTACTGGACGGAGTCACCTAGTGCAG”, the binding signal is 27400 fluorescence intensity (a.u.). Turning to “GTTTGTACACGTGATTAGCAAGAACCAAACCATGTTTCAACGGAGTCACCTAGTGCAG”, the binding signal was 10200 fluorescence intensity (a.u.). Under “AATAACAAATACTTAATTAATCATGCGTTAATACAAACATCGGAGTCACCTAGTGCAG” stands 19500 fluorescence intensity (a.u.); under “CATAGATTAATTAGGCTCAATAGATTCGTCTCGCGAATTACGGAGTCACCTAGTGCAG”, 16200 fluorescence intensity (a.u.). For “GATCATGACTGGCGAGTCAATGTACAGGACATGAAAACCACGGAGTCACCTAGTGCAG” the value was 3550 fluorescence intensity (a.u.).
